Results reported in PubChem BioAssay (NCI).
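All cell lines were grown in 96-well plates and treated with compound for 48 hours. GI50 is the concentration that inhibits growth by half.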 Not every entry of the source has a single result; some have several. This is not the full list of results. There may be further records. For some assays here: The values listed for one entry are repeated measurements (runs, samples, wells, individuals or studies). What stands in brackets tells the records apart. The letters are not those of the source and start again with each entry.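 TGI: total growth inhibition.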 For some assays here: Records of one sample usually come from different ranges of test concentrations, which the source does not state; some values may only mark the edge of a range.

Assays:
Assay in all cases: growth of human tumour cells (NCI), 48 h
[1] = test system: A498 renal
[2] = test system: TK-10 renal
[3] = test system: 786-0 renal
[4] = test system: HCT-116 colon
[5] = test system: HL-60(TB) leukemia
[6] = test system: HOP-92 NSCLC
[7] = test system: K-562 leukemia
[8] = test system: KM12 colon
[9] = test system: M14 melanoma
[10] = test system: MALME-3M melanoma
[11] = test system: MDA-MB-231 breast
[12] = test system: NCI-H226 lung
[13] = test system: NCI-H23 lung
[14] = test system: OVCAR-5 ovarian
[15] = test system: PC-3 prostate
[16] = test system: SF-268 CNS
[17] = test system: SF-295 CNS
[18] = test system: SK-MEL-5 melanoma
[19] = test system: SNB-75 CNS
[20] = test system: U251 CNS
[21] = test system: UACC-257 melanoma
[22] = test system: UO-31 renal

O=C(Nc1ccc(Cl)c(Cl)c1)Nc1ccc(Cl)c(Cl)c1
GI50 [1]: 1.41 µM [sample A, 1 test] and 103 nM [sample B, 1 test]

COC1CCC(N2C(=O)CNc3ncc(-c4ccc(C(C)(C)O)nc4)nc32)CC1 (stereo unspecified)
GI50 [2]: 578 nM [sample A, mean of 2 tests] and 57.7 nM [sample B, mean of 2 tests]

CC[C@@]1(O)C[C@H](OC2CC(N(C)C)C(O)C(C)O2)c2c(O)c3c(c(O)c2[C@H]1OC1CC(N(C)C)C(O)C(C)O1)C(=O)c1cccc(O)c1C3=O (stereo partly specified)
TGI [3]: 743 nM and 10.3 µM
TGI [1]: 116 nM and < 10 nM
TGI [4]: 327 nM and < 10 nM
TGI [5]: 843 nM and 83.5 nM
TGI [6]: 774 nM and < 10 nM
TGI [7]: 424 nM and 11.4 nM
TGI [8]: 306 nM and < 10 nM
TGI [9]: 171 nM and 16.2 nM
TGI [10]: 171 nM and < 10 nM
TGI [11]: 231 nM and < 10 nM
TGI [12]: 53.5 nM and 945 nM
TGI [13]: 375 nM and < 10 nM
TGI [14]: 706 nM and 7.2 µM
TGI [15]: 187 nM and < 10 nM
TGI [16]: 931 nM and 38.3 nM
TGI [17]: 811 nM and 10.8 nM
TGI [18]: 245 nM and < 10 nM
TGI [19]: 132 nM and < 10 nM
TGI [2]: 935 nM and 30.5 nM
TGI [20]: 573 nM and 10 µM
TGI [21]: 554 nM and 45.6 nM
TGI [22]: 568 nM and < 10 nM

CCCNC1=C2CC(C)CC(OC)[C@@H](O)[C@H](C)/C=C(\C)C(OC(N)=O)C(OC)/C=C\C=C(/C)C(=O)NC(=CC1=O)C2=O (stereo partly specified)
TGI [6]: 861 nM and 45.3 µM
TGI [14]: 622 nM and 40.7 µM
